Some entries of the source have several records that differ or are many. The other results are left out here. There may be further records. Values that stand side by side repeat one measurement across runs, samples, wells, individuals or studies. Records carry a tag for their origin. Letters count within one entry.
Organism: Rattus norvegicus
Assay: DrugMatrix - Regimen: Daily Repeat
Type: toxicity, organism-based, Sprague-Dawley
Design: regimen Daily Repeat, gender Male, age 6-8 weeks
Conditions: in vivo, po, 0 mg/kg, 120 h, tissue Plasma, route oral GAVAGE, dose level Control, time 5 day, vehicle .5 % CMC

## Clc1cc2c(cc1Cl)Oc1cc(Cl)c(Cl)cc1O2 [2,3,7,8-TETRACHLORODIBENZO-P-DIOXIN]
  TOTAL BILIRUBIN: 0.18 mg/dL [study A] and 0.55 mg/dL [study B]

## O=c1cc(-c2ccccc2)oc2ccc3ccccc3c12 [BETA-NAPHTHOFLAVONE]
  TOTAL BILIRUBIN: 0.18 mg/dL [study A] and 0.55 mg/dL [study B]

Source: ChEMBL document CHEMBL3885881, “DrugMatrix”
